Data on five molecules can be found in patent publication US20220242962A1 (APTEVO RESEARCH AND DEVELOPMENT, published 2022).

As usually defined, the Kd is the concentration at which binding is half-saturated. By koff is commonly meant a measure of how fast the partners let go of each other. High values mean a short-lived complex, low ones a long-lived complex. A word on the kon: it is the rate constant with which the complex forms. Lower therefore signals slow association. As usually defined, the EC50 is the midpoint of the concentration-response curve. A low value points to greater potency.

One assay has as its target T1, Cyno 4-1BB ECD-AFH (cynomolgus monkey).
T1 construct: entry includes the tags; also called FOB004; Cyno CD137 ECD-avi-flag-his
T1 chain: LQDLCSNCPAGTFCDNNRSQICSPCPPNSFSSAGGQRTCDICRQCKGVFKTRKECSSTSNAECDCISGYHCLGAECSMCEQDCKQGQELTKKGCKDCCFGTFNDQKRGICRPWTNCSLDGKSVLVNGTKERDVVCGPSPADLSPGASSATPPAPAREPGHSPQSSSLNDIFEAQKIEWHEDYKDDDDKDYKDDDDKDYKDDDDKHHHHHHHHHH
The experiment in a line: SPR, construct captured, monomeric ECD as analyte. The protocol:
(§1) Mouse anti-human IgG (GE, BR-1008-39) at 25 μg/ml in 10 mM sodium acetate pH 5.0 was immobilized at a density of ˜10,000 response units (RU) onto each flow cell of a CM5 research-grade sensor chip (GE) by standard amine coupling chemistry. Each binding protein at approximately 100 nM in HBS-EP+ with 0.2% BSA buffer was captured in a flow cell with the immobilized anti-human IgG at a flow rate of 10 μL/min for 20 seconds, leaving one flow cell surface unmodified as the reference. Using a single-cycle kinetics mode, five different concentrations of ECD were sequentially injected through each flow cell at 30 μL/min for 300 seconds followed by a 600 second dissociation period. Regeneration was achieved by injection of 3 M MgCl₂ at a flow rate of 30 μL/min for 30 seconds followed by HBS-EP+ with 0.2% BSA buffer stabilization for 1 min.
(§2) Sensorgrams obtained from kinetic SPR measurements were analyzed by the double subtraction method. The signal from the reference flow cell was subtracted from the analyte binding response obtained from flow cells with immobilized or captured ligands. Buffer reference responses were then averaged from multiple injections. The averaged buffer reference responses were then subtracted from analyte binding responses, and the final double-referenced data were analyzed with Biacore T200 Evaluation software (2.0, GE), globally fitting data to derive kinetic parameters. All sensorgrams were fitted using a simple one-to-one binding model.
Background: Surface plasmon resonance follows binding to a sensor surface in real time, without labels.

For a further assay, the target named is T2, Human 4-1BB ECD-AFH (human).
T2 construct: entry includes the tags; also called FOB003; HUMAN CD137 ECD-AVI-FLAG-HIS
The experiment in a line: SPR, construct captured, monomeric ECD as analyte. The protocol:
as §1, §2

Assay [1] has as its target T3, Full-length Human 4-1BB (human, UniProt Q07011 24-255).
T3 construct: also called FOB005; CD137
The assay is described as follows: flow cytometry, cells expressing human 4-1BB (Jurkat in text, CHO in table head).

In assay [2] the target is T3, Full-length Human 4-1BB. The experiment in a line: cell-based or functional assay.
For another assay, the target named is T4, Full-length Cyno 4-1BB (cynomolgus monkey, UniProt Q07011 24-255 (human entry)).
T4 construct: on Jurkat or CHO cells; also called FOB006; cynomolgus 4-1BB
T4 chain: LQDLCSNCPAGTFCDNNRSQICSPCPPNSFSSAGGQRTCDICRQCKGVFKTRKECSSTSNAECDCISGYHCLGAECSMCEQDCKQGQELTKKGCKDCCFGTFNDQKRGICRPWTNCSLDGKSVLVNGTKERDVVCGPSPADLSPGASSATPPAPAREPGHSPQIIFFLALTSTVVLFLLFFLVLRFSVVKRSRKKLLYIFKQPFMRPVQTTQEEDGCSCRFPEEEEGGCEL
The experiment in a line: flow cytometry, cells expressing cynomolgus 4-1BB (Jurkat in text, CHO in table head).

The target in assay [3] is T5, Full-length Human OX40 (human, UniProt P43489 29-277).
T5 construct: also called OXF001; human OX40/CHO
T5 sequence: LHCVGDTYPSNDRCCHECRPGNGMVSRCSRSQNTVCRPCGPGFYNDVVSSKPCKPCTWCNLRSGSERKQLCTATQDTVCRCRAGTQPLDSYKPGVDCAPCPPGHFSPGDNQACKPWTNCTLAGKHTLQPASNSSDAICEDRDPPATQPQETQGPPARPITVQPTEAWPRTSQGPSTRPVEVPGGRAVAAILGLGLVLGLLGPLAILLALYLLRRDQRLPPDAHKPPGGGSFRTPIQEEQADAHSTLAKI
The experiment in a line: flow cytometry, CHO cells expressing human OX40. The procedure: (§3) Mean fluorescence intensity (MFI) of bound molecules on cells was determined after exclusion of doublets.
In general terms: Flow cytometry measures light scatter and fluorescence of single cells or particles in a stream.

In a further assay the target is T6, Human OX40 ECD-AFH (human).
T6 construct: ECD'; entry includes the C-terminal tags; also called OXF003; Human OX40 ECD-avi-flag-his
T6 chain: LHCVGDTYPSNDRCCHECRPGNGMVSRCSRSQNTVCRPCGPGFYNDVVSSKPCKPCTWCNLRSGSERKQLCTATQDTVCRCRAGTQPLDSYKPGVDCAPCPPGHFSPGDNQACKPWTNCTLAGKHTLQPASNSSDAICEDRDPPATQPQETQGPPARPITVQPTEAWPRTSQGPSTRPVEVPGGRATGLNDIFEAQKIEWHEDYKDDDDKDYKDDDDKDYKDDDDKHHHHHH
The experiment in a line: SPR, construct captured, monomeric ECD as analyte. The protocol: as §1, §2

Assay [4] deals with T5, Full-length Human OX40. The assay is described as follows: cell-based or functional assay.
In another assay the target is T7, Full-length Cyno OX40 (cynomolgus monkey, UniProt P43489 29-277 (human entry)).
T7 construct: on CHO-K1SV cells; also called OXF004; cynomolgus OX40
T7 chain: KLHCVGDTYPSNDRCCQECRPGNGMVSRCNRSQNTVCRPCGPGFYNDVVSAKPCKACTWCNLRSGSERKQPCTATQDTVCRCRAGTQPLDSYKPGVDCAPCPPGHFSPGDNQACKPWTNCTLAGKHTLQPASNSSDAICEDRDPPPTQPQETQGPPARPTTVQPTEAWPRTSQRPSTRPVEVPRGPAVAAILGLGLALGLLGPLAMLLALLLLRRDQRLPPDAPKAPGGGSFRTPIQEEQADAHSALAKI
The assay is described as follows: flow cytometry, CHO cells expressing cynomolgus OX40. The procedure: as §3

B1: FOB01188 (Fc fusion)
chain: [sequence of human IgG1 Fc with changes and a few adjoining residues omitted]GGGGSGGGGSGGGGSPSEVQLVQSGAEVKKPGASVKVSCKASGYTFTSYWMNWVRQAPGQGLEWMGNIYPGSSTTNYAQKFQGRVTMTVDTSTSTVYMELSSLRSEDTAVYYCASFSDGYYAYAMDYWGQGTLVTVSSGGGGSGGGGSGGGGSGGGGSEIVMTQSPATLSLSPGERATLSCRASQDISNYLNWYQQKPGQAVRLLIYYTSRLHSGIPARFSGSGSGTDYTLTISSLQPEDFAVYFCQQGYTLPYTFGQGTKVEIKR
notes: wild-type IgG1 Fc with anti-4-1BB scFv (VH-VL) at its C-terminus; also called FOBW0061HLH26; FOB01188 (Partially Humanized)
On to B1, for which, in the assay with Cyno 4-1BB ECD-AFH, the Kd came to 61 nM, the koff stood at 0.0032 s⁻¹ and the kon was 53000 M⁻¹ s⁻¹. Moreover, in the assay with Human 4-1BB ECD-AFH, the Kd amounted to 25 nM, the koff is 0.0021 s⁻¹ and the kon is 82000 M⁻¹ s⁻¹. Moreover, the midpoint of the response with Full-length Human 4-1BB [1], the EC50, lay at 1.4 nM. For the same molecule, in the assay with Full-length Human 4-1BB [2], the “Reporter Assay CD64/CHO EC50” value is 0.028 nM. Also, it took 2.2 nM to reach a half-maximal effect with Full-length Cyno 4-1BB (EC50).

B2: FOB01143 (Fc fusion)
chain: [sequence of human IgG1 Fc with changes and a few adjoining residues omitted]GGGGSGGGGSGGGGSPSEVQLVQSGAEVKKPGSSVKVSCKASGYTFTSYWINWVRQAPGQGLEWIGNIYPGSSTTNYNEKFKSRATLTVDTSTSTAYMELSSLRSEDTAVYYCASFSDGYYAYAMDYWGQGTLVTVSSGGGGSGGGGSGGGGSGGGGSEIVMTQSPGTLSLSPGERATLSCRASQDISNYLNWYQQKPGQAVRLLIYYTSRLHSGIPDRFSGSGSGTDYTLTISRLEPEDFAVYFCQQGYTLPYTFGQGTKVEIKR
notes: wild-type IgG1 Fc with anti-4-1BB scFv (VH-VL) at its C-terminus; also called FOBW006HLH20; FOB01143 (Mouse)
In the case of B2, the values for the Kd in the assay with Cyno 4-1BB ECD-AFH and with Human 4-1BB ECD-AFH were 89 nM and 38 nM, respectively. The koff in the assay with Cyno 4-1BB ECD-AFH is 0.0039 s⁻¹; with Human 4-1BB ECD-AFH it was 0.0026 s⁻¹. For the same molecule, the results for the kon with Cyno 4-1BB ECD-AFH and with Human 4-1BB ECD-AFH were 44000 M⁻¹ s⁻¹ and 68000 M⁻¹ s⁻¹, respectively. Moreover, the EC50 in the assay with Full-length Human 4-1BB [1] worked out at 1.2 nM; with Full-length Cyno 4-1BB, 2.4 nM. Further, in the assay with Full-length Human 4-1BB [2], the “Reporter Assay CD64/CHO EC50” value came out at 0.028 nM.

B3: OXF01099 (Fc fusion)
chain: [sequence of human IgG1 Fc with changes and a few adjoining residues omitted]GGSPSSYVLTQPPSVSVAPGQTARITCGGNNIGSKSVNWFQQKPGQAPVLVVYDDSGRPSGIPERFSGSTSGNTATLTISRVEAGDEADYYCQVWDSSSDHVVFGGGTKLTVLGGGGSGGGGSGGGGSGGGGSQVQLVESGGGVVQPGRSLRLSCAASGFTLSYYGMHWVRQAPGKGLEWVAVISHDGSDKYYADSVKGRFTISRDNSKNTLYLQMNSLRAEDTAVYYCSNDQFDPWGQGTLVTVSSR
notes: wtFc-anti-OX40 scFv; germlining mutations with H40N
Consider B3, for which, in the assay with Full-length Human OX40 [3], a half-maximal response (EC50) required 4 nM and the “max MFI” value stood at 14600 MFI. Further, in the assay with Human OX40 ECD-AFH, the affinity, expressed as Kd, was 0.3 nM; the koff amounted to 0.00014 s⁻¹; the kon came out at 530000 M⁻¹ s⁻¹. In the assay with Full-length Human OX40 [4], the “OX40 Reporter Assay EC50” value was 0.182 nM and the “OX40 Reporter Assay Max induction” value amounted to 1.43e+06. In the assay with Full-length Cyno OX40, the EC50 turned out to be 4 nM and the “max MFI” value was determined as 13300 MFI.

B4: OXF01115 (Fc fusion)
chain: [sequence of human IgG1 Fc with changes and a few adjoining residues omitted]GGSPSSYVLTQPPSVSVAPGQTARITCGGNNIGSKSVNWFQQKPGQAPVLVVYDDSGRPSGIPERFSGSTSGNTATLTISRVEAGDEADYYCQVWDSSSDHVVFGGGTKLTVLGGGGSGGGGSGGGGSGGGGSQVQLVESGGGVVQPGRSLRLSCAASGFTLSYYGMHWVRQAPGKGLEWVAAISHDGSDKYYADSVKGRFTISRDNSKNTLYLQMNSLRAEDTAVYYCSNDQFDPWGQGTLVTVSSR
notes: wtFc-anti-OX40 scFv; germlining mutations with H40N and V55A
Take B4: in the assay with Full-length Human OX40 [3], the EC50 was 2.1 nM and the “max MFI” value was 14800 MFI. Besides, in the assay with Human OX40 ECD-AFH, the Kd was 0.7 nM, the koff amounted to 0.00026 s⁻¹ and the kon was 390000 M⁻¹ s⁻¹. In addition, in the assay with Full-length Human OX40 [4], the “OX40 Reporter Assay EC50” value is 0.088 nM and the “OX40 Reporter Assay Max induction” value came to 1.31e+06. Also, in the assay with Full-length Cyno OX40, the EC50 was determined as 1.8 nM and the “max MFI” value turned out to be 17000 MFI.

B5: OXF01122 (Fc fusion)
chain: [sequence of human IgG1 Fc with changes and a few adjoining residues omitted]GGSPSSYVLTQPPSVSVAPGQTARITCGGNNIGSKSVHWFQQKPGQAPALVVYDDSGRPSGIPERFSGSTSGNTATLTISRVEAGDEADYYCQVWDSSSDHVVFGGGTKLTVLGGGGSGGGGSGGGGSGGGGSQVQLVESGGGVVQPGRSLRLSCAASGFTLSYYGMHWVRQAPGKGLEWVAVISHDGSDKYYADSVKGRFTISRDNSKNTLYLQMDSLRAEDTALYYCSNDQFDPWGQGTLVTVSSR
notes: monospecific wild-type IgG1 Fc with anti-OX40 scFv at its C-terminus (wtFc-anti-OX40 scFv); also called OXF01122 (Parent); OXF01022
For the molecule B5, in the assay with Full-length Human OX40 [3], the EC50 amounted to 2.2 nM and the “max MFI” value is 13800 MFI. In addition, in the assay with Human OX40 ECD-AFH, the Kd stood at 0.6 nM, the koff came out at 0.00021 s⁻¹ and the kon stood at 340000 M⁻¹ s⁻¹. In the assay with Full-length Human OX40 [4], the “OX40 Reporter Assay EC50” value is 0.089 nM and the “OX40 Reporter Assay Max induction” value worked out at 1.52e+06. In addition, in the assay with Full-length Cyno OX40, the EC50 worked out at 1.8 nM and the “max MFI” value turned out to be 15300 MFI.
